The list shows a part of the results.
Tested on: PfSIP2 AP2 domain 1 (GST-tagged)
Experiment: gcPBM binding intensity (ln(normalized median fluorescence intensity)); higher = stronger DNA binding
In short: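 After 1 h on an Agilent 4 × 180k array of primer-extended double-stranded 36-bp intergenic genomic probes and negative controls, bound GST-tagged P. falciparum DNA-binding domains were detected with Alexa488 anti-GST antibody and scanned at 488 nm. The domains had been expressed in E. coli, and binding took place in 1× PBS with 1% milk, 0.2 mg/ml BSA, 0.5% salmon testes DNA and 0.03% Triton X-100. Binding intensity is the highest Masliner-normalised natural-log median intensity across replicate spots of either probe orientation.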

First: TATATATATAAACACACACACACCAAAGCGTAGCGC [CACACA_site7903]
Second: AGCCATTAATTCTCTACACACCTTTATGTTATTTAG [CACACA_site3635]
The “gcPBM binding intensity (ln)” value of the first is higher: 8.45 for the first, 7.2 for the second.

First: TTGTATTCATAACAACGTACATATTTTGTAACTAAA [XGTACX_site4029]
Second: TTTCAAACAAAAAGACGTACACTGAAGTTATCCGTC [XGTACX_site8824]
The “gcPBM binding intensity (ln)” value of the first is higher: 6.9 for the first, 6.74 for the second.

“AAGGAAATATAATATACACACATAAGTGTACTTCTA [CACACA_site6079]” and “ACTCATAAAAATAGATGTACTTTAATAATTTGATTT [XGTACX_site8763]” are the same in “gcPBM binding intensity (ln)” value: 7.07 for the first, 7.07 for the second.

Going from “TCAAACGGTTAAATATGTACATATATATATATATAT [XGTACX_site2339]” to “AAAAAAAAAAGACACACACACATATAAATATAAATA [CACACA_site6899]”, the “gcPBM binding intensity (ln)” value falls from 9.13 to 6.97.

Going from ACCCACTTTTGAGGTGTGCACAATAAATTGGACATT to “ATATATATTTAAACTACACACGCATATCTTAGAAAT [CACACA_site8348]”, the “gcPBM binding intensity (ln)” value falls from 9.18 to 7.23.

Going from “TAAGAGATATTTTATTAAATGTTTTATGAATCATGT [TGCATGCA_negctrl_site264]” to “AGGAAAAAAAAAATGACACACATATTTGAATTAAAA [CACACA_site1352]”, the “gcPBM binding intensity (ln)” value rises from 6.58 to 6.83.

Compared with “GTACATACATAAAACACACACATATAGATTTATATA [CACACA_site6945]”, AGTGTGTGTAATAAAGTGCATTAAAAATGACACGTA is higher in “gcPBM binding intensity (ln)” value: 7.12 for the first, 8.55 for the second.

First: TAACACATATATTGTTGTACATTCAAACTGAAAAAT [XGTACX_site5565]
Second: TTTTTTTTATTAAAAAGTACTAAACAAATTATATAT [XGTACX_site121]
The “gcPBM binding intensity (ln)” value of the first is lower: 7.02 for the first, 7.26 for the second.

First: ATATATATATATATGTGTACATATGTATATATATCT [XGTACX_site2930]
Second: CCCATGTAATGAACATGTACATAATAATTTATAAAT [XGTACX_site8687]
The “gcPBM binding intensity (ln)” value of the first is higher: 9.72 for the first, 7.03 for the second.

Going from “AGATGGAGAAAGTTATGTACACATATATAAATATGT [XGTACX_site6150]” to “TATATACATATGTGATGTACATTTTTTGTAATATAA [XGTACX_site6985]”, the “gcPBM binding intensity (ln)” value rises from 7.14 to 7.26.

Going from “ATGTCTACAGTTTTTGCACACATATAAATAAAAAAA [CACACA_site3600]” to “ATTTTTTTTTTTTTTTTTTTTGAGAAGAACTTTTTC [CACACA_negctrl_site1019]”, the “gcPBM binding intensity (ln)” value falls from 7.68 to 6.81.

Compared with “AAACATCATAAATATACACACATATTTATATTTATA [CACACA_site6437]”, “CCATAACTCATATGCACACATAAATATTACATATAT [CACACA_site3821]” is higher in “gcPBM binding intensity (ln)” value: 7.19 for the first, 7.71 for the second.

First: TTTTAAAAAGAAAAAAATAACATACATATATATATA [CACACA_negctrl_site240]
Second: CTATTTTTTGTATAAACATGCATATAGTAGATATGG [TGCATGCA_site670]
The “gcPBM binding intensity (ln)” value of the first is higher: 8.83 for the first, 7.1 for the second.

Compared with “TTTAATATTTTTTTTTGTACTTATTTGTAGAAATAT [XGTACX_site3046]”, “AGGCTCATTTTTTTTAGTACATCAAAAAAAAAAAAA [TGCATGCA_negctrl_site591]” is higher in “gcPBM binding intensity (ln)” value: 7.24 for the first, 7.26 for the second.

Compared with “TGTATGTTTATTTGATGTACGGTCATACATATAAAT [XGTACX_site5176]”, “AAATTCATATGAATTTGTACGGACATAAATATCTTC [XGTACX_site1838]” is higher in “gcPBM binding intensity (ln)” value: 6.87 for the first, 6.94 for the second.

First: ATTCATAATATTATAACACACGCTTATTACATAAAG [CACACA_site980]
Second: TTTTACATATACATGTGTACATAACAAAGAATGTTT [XGTACX_site2406]
The “gcPBM binding intensity (ln)” value of the first is higher: 7.2 for the first, 7.08 for the second.

Compared with “CGCATGTATTTTGTGTGTACTAATTATAATCAACTT [XGTACX_site4709]”, “TAATATTGTATTTATGTACACACATTTTTGGAATAT [CACACA_site8371]” is higher in “gcPBM binding intensity (ln)” value: 7.2 for the first, 7.33 for the second.

Going from “AGTGTATTAATTCTCACACACTAAGAAAAAAAAAAA [CACACA_site6007]” to “TTTTTTAATAAATGGTGTACATATTTTTTTTATACT [XGTACX_site8584]”, the “gcPBM binding intensity (ln)” value rises from 6.82 to 7.54.

Compared with TGAGCACAAATACAGGTGCATATAAAATATATGACG, “AGAGGCCAGCTTTCTCTTCTAAACATGTACAAAAAT [GTGCAC_negctrl_site98]” is lower in “gcPBM binding intensity (ln)” value: 10.5 for the first, 6.78 for the second.

First: AAAAAAATAAAATGTTCACACATTTCACAATTACTT [CACACA_site4859]
Second: ATATATATATAGTGCACACATATAAAATATATATAA [CACACA_site2745]
The “gcPBM binding intensity (ln)” value of the first is lower: 6.76 for the first, 10.3 for the second.

First: TATAATATATATAGGAGTACGTATGTATATTTATAA [XGTACX_site3521]
Second: TTTACAGATACTTGCTCACACATATGTATAAAAATA [CACACA_site4928]
The “gcPBM binding intensity (ln)” value of the first is lower: 7.11 for the first, 7.22 for the second.

First: AATAGTTAAATGTACACACTAACTACATGGAATATA [CACACA_site3262]
Second: TATATATAAAACATATGTACATATATATATATATAT [XGTACX_site419]
The “gcPBM binding intensity (ln)” value of the first is lower: 7.02 for the first, 9.57 for the second.

“ATATTTTATAATTTTACACACCATATAAAATAATTC [CACACA_site2797]” was tested, and the “gcPBM binding intensity (ln)” value was 7.16.
